Screen size: about 280,000 compounds; about 1,100 (0.39%) were called active. Inconclusive means that the source gave no clear call. Such entries were picked first, then a sample of the others. Calls come from the whole dose curve; as a rule, active = well fitted inhibition curve with a large enough effect; inconclusive = small, poorly fitted or top-dose-only effect, or effect the other way; inactive = flat fitted curve, though single readings scatter. Potencies of inconclusive entries are left out as doubtful fits.
molecular target: Microtubule-associated protein tau (Homo sapiens) (UniProt P10636); test: qHTS for Inhibitors of Tau Fibril Formation, Fluorescence Polarization; details: K18 P301L tau heparin fibrillization, Alexa594 FP, 6 h; series mostly up to 57.7 µM; note: nearly all actives have a fitted effect of over 55% in size
In short: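 Quantitative HTS format: compounds meet 15 uM recombinant K18 P301L tau and Alexa 594-tau tracer in 100 mM sodium acetate pH 7; 20 uM heparin triggers fibrillization at 37 C over 6 hr; FP gives the signal.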
Potency is the fitted concentration of half-maximal effect; tags give direction and shape of the fitted curve.

Sequence of UniProt P10636 (P10636 whole entry, looked up): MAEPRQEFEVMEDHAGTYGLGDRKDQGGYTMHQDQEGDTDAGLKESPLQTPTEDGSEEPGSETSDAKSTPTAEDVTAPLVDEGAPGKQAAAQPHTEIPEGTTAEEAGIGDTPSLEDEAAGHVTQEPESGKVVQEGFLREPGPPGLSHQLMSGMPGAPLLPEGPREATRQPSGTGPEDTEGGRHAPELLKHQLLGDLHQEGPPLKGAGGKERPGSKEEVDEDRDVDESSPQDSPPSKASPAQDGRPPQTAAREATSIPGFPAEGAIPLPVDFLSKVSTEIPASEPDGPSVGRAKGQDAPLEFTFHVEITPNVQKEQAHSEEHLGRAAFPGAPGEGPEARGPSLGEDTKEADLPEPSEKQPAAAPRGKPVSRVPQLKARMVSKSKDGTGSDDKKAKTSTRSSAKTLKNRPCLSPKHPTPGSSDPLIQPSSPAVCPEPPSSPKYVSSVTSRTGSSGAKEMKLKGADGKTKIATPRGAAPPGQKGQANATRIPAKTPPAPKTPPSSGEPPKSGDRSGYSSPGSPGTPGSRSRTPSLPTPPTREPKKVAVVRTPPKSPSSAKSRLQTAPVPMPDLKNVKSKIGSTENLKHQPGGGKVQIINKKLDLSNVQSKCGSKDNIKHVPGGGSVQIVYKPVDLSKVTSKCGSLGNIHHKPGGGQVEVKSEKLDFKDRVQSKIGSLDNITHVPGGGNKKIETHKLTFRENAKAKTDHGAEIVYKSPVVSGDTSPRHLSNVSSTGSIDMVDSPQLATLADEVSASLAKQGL

SMILES	Potency
Cc1c(NC(=S)N/N=C/c2cccc(O)c2)c(=O)n(-c2ccccc2)n1C	inactive
Nc1ncnc2c1ncn2[C@@H]1O[C@H](CO)[C@H](O)[C@H]1O	inconclusive [inhibitor, partial curve, poor fit]
O=c1c2cc3c(cc2n(Cc2cccc(F)c2)c(=O)n1Cc1nc(-c2ccccc2)no1)OCO3	inconclusive [inhibitor, single point]
COc1ccc2c([N+](=O)[O-])c(Cl)[nH]c2c1	inconclusive [inhibitor, partial curve]
COc1ccc(N(CC(=O)Nc2ccc(S(=O)(=O)N3CCOCC3)cc2)S(=O)(=O)c2ccc(F)cc2)cc1	inconclusive [inhibitor, partial curve, poor fit]
c1ccc(N2CCN(c3ncnc4[nH]ncc34)CC2)cc1	inactive
O=C(CC1N=C2c3ccccc3N=C(SCc3cccc(Cl)c3)N2C1=O)NC1CCCCC1 (centres undefined)	inactive
C(=N\Nc1nc(Nc2ccccc2)nc(Nc2ccccc2)n1)/c1cccnc1	inconclusive [inhibitor, partial curve]
Fc1ccc(Nc2nc(-c3cccnc3)cs2)cc1	inconclusive [activator, full curve]
O=C(Nc1ccc2nn(-c3ccc(F)cc3)nc2c1)c1cccc2c(Cl)cccc12	inconclusive [inhibitor, partial curve]
Cc1ccc(NC(=O)c2cccc(OCc3c(C)noc3C)c2)cc1S(=O)(=O)Nc1ccccc1Cl	inconclusive [inhibitor, partial curve]
COC(=O)c1cccc(Nc2c(-c3cc(Br)ccc3O)nc3nc[nH]n23)c1	inactive
O=S(=O)(c1cccs1)N1CN(Cc2ccco2)c2nc3ccccc3nc21	inconclusive [inhibitor, partial curve]
Cc1ccc(Cl)cc1N1CCN(C(=O)c2c(C)oc3ncnc(N4CCOCC4)c23)CC1	inactive
O=C1N=c2ccccc2=C1c1sc(=S)n(NC(=O)c2cccc(O)c2)c1O	inconclusive [inhibitor, partial curve, poor fit]
CC(=O)Oc1cccc(N2C(=O)CC(Nc3ccc(N4CCOCC4)cc3)C2=O)c1 (centres undefined)	inconclusive [inhibitor, single point]
CCN(CC)S(=O)(=O)c1cccc(-c2nnc(SC(C)C(N)=O)n2CCc2ccccc2)c1 (centres undefined)	inactive
O=C(NCCN1CCOCC1)c1cc2sccc2n1Cc1ccc(Cl)cc1	inconclusive [inhibitor, single point]
CCOCc1cnc(C)nc1NCC(=O)c1c(C)[nH]c2ccc(OC)cc12	inactive
N/C(Cc1ccc(Cl)cc1Cl)=N\OC(=O)Cc1cccs1	inactive
Cc1cccc(NC(=O)Cn2cc(S(=O)(=O)Cc3ccccc3Cl)c3ccccc32)c1	inconclusive [inhibitor, partial curve]
CN(C)C(=O)Cn1c(SCC(=O)NC2CCCCC2)nc2ccccc21	inconclusive [inhibitor, partial curve]
O=C(Oc1ccc(-n2cnnn2)cc1)c1ccccc1	inactive

SMILES	Potency
COc1cc(OC)c2c(c1C(CCN1CCOCC1)c1ccc(N(C)C)cc1)OC(=O)CC2c1ccc(N(C)C)cc1 (centres undefined)	inconclusive [activator, single point]
CCOc1ccc(S(=O)(=O)c2c(C(=O)c3ccccc3)cnc3cc4c(cc23)OCCO4)cc1	inconclusive [inhibitor, partial curve]
CCOc1ccc(NC(=O)CN2CCSc3ccc(S(=O)(=O)N4CCCC4)cc32)cc1	inconclusive [activator, single point]
CC(C)c1cc(C(N)=O)c(NC(=O)c2cccc(COc3ccc(Cl)cc3)c2)s1	inconclusive [inhibitor, partial curve]
O=C(Nc1ccc(Cl)cc1)OCc1cn(-c2ccc(Cl)cc2)nn1	inconclusive [inhibitor, partial curve]
Cc1ccccc1-n1c(=O)/c(=C\c2ccco2)s/c1=C(/C#N)C(=O)Nc1ccccc1	inconclusive [inhibitor, partial curve]
COCCNC(=O)CSc1nnc2[nH]c(=O)cc(C)n12	inactive
c1ccc(C2=NN(c3ccccc3)CC2)cc1	inactive
COc1ccccc1-n1c(=O)oc2ccc(Cl)cc2c1=O	inactive
CCC(=O)Nc1cc2nn(-c3ccc(C)cc3)nc2cc1C	inactive
CC(C)CN1C(=O)CC(Sc2ccccc2C(=O)O)C1=O (centres undefined)	inactive
N#Cc1c(N)nc(SCC(=O)NCCc2ccccc2)c(C#N)c1-c1cccs1	inconclusive [activator, single point]
COc1ccc(CC(=O)Nc2cccc(-c3nnc(-c4ccco4)o3)c2)cc1	inconclusive [inhibitor, single point]
COc1ccc(CNC(=O)CCn2c(=O)oc3ccccc32)c(OC)c1	inconclusive [inhibitor, single point]
Cc1c(C(=O)NCc2ccc(F)cc2)sc2nc(-c3ccc(F)cc3)cn12	inconclusive [inhibitor, single point]
CC(C)(C)c1ccc(-c2nc(NCc3cccnc3)c3ccccc3n2)cc1	inconclusive [inhibitor, partial curve]
c1ccc(-c2cnc(SCCN3CCOCC3)n2CC2CCCO2)cc1 (centres undefined)	inactive
CCOC(=O)C(C(C)=O)=C1SC2CS(=O)(=O)CC2S1 (centres undefined)	inconclusive [inhibitor, full curve, poor fit]
COc1ccc(CCNC(=O)Cn2c(=O)c3cccn3c3ccccc32)cc1OC	active: 14.1 µM
CC1(C)CC(=O)C(C=Nc2ccccc2)=C(O)C1	inactive
O=C(Nc1nnc(SCc2ccccc2Cl)s1)c1cccc([N+](=O)[O-])c1	inconclusive [activator, single point]
CCc1nnc2c3ccccc3nc(N3CCN(c4cc(C)ccc4C)CC3)n12	inactive
COc1ccc(/C=N/NS(=O)(=O)c2ccc(C)cc2)cc1OC(=O)c1ccccc1	inconclusive [inhibitor, partial curve]

SMILES	Potency
CC1CCCN(c2ncnc3c2cnn3-c2ccccc2)C1 (centres undefined)	inactive
CSc1nc(SCC(=O)NC(c2ccccc2)c2ccccc2)c2c3c(sc2n1)CN(C)CC3	inconclusive [inhibitor, single point]
Cc1ccc(Nc2nc(CSc3nnnn3-c3ccccc3)cc(=O)[nH]2)cc1	inconclusive [inhibitor, single point]
CC(C)OCCCN1C(=O)c2[nH]nc(-c3ccccc3O)c2C1c1cccc(OCc2ccccc2)c1 (centres undefined)	inconclusive [inhibitor, partial curve]
CCC(C(=O)Nc1cccc(C(=O)O)c1)c1ccccc1 (centres undefined)	inactive
COc1cccc2cc(S(=O)(=O)c3ccccc3)c(=Nc3ccc4c(c3)OCCO4)oc12	inconclusive [inhibitor, partial curve, poor fit]
Cc1cc(C)cc(-n2ccnc2SCC(=O)Nc2nc3ccc(C)cc3s2)c1	inconclusive [inhibitor, partial curve]
O=C(Nc1nnc(S(=O)(=O)N2CCc3ccccc32)s1)c1ccccc1Cl	inactive
O=C1CN(C(=O)COC(=O)c2oc3ccccc3c2COc2ccccc2)c2ccccc2N1	inconclusive [inhibitor, partial curve]
O=C(/C=C/c1ccccc1)Oc1cccc(C(=S)N2CCOCC2)c1	inactive
Cc1ccc(C(=O)CC2(O)C(=O)N(Cc3ccccc3)c3ccccc32)c(C)c1 (centres undefined)	inconclusive [inhibitor, single point]
O=C1CC(N(CCc2ccccc2)C(=S)Nc2ccccc2)C(=O)N1c1ccc(F)cc1 (centres undefined)	inconclusive [inhibitor, partial curve]
COc1ccc(/C=C2/C(=O)N(Cc3ccccc3)N=C2C)cc1	inactive
Cc1ccc(Oc2c(C=O)c3ccccc3n2C)cc1	inconclusive [inhibitor, single point]
Cc1ccc(S(=O)(=O)N2CCSC2=Nc2ccccc2)cc1	inconclusive [inhibitor, single point]
CCCN(Cc1cccs1)C(=O)Nc1ccc(F)c(Cl)c1	inactive
COc1ccc2c(C)cc(SCC(=O)Nc3cc(C(N)=O)cc(C(N)=O)c3)nc2c1	inconclusive [inhibitor, full curve]
C=CCN1C(=O)/C(=C2/Sc3ccc(OC)cc3N2C)SC1=Nc1ccccc1	inconclusive [activator, single point]
CC1(OC(=O)CCc2ccccc2)C(=O)C=C2C=C(c3ccc(C#N)cc3)OC=C2C1=O (centres undefined)	inactive
CCC1CN(C(=O)N2CCC(C(=O)NCc3ccco3)CC2)c2ccccc2O1 (centres undefined)	inconclusive [activator, partial curve]
Cc1ccc(S(=O)(=O)N(Cc2ccccc2)c2ccccc2C(=O)Nc2ccccc2C(=O)NCc2ccco2)cc1	inconclusive [inhibitor, partial curve]
CC(C)NS(=O)(=O)c1ccc(OCC(=O)N(C)Cc2ccccc2)cc1	inactive
CN1CC=C2C(C#N)=C(N)C(C#N)(C#N)[C@H](c3cccc(Cl)c3)C2C1 (some centres undefined)	inconclusive [inhibitor, partial curve]

Reference: PubChem BioAssay AID1468 (National Center for Advancing Translational Sciences (NCATS), 2008)
